This is an account of results in patent publication US20260034244A1 (PANOLOS BIOSCIENCE, published 2026).

Numbering of substitutions follows the chain as printed. Names and notes keep the numbering of the source. A value given as a limit tells only on which side of the number the result lay.

T1: VEGF-A (UniProt P15692-4 27-191, limits assumed)
T1 construct: also called vascular endothelial growth factor A
T1 sequence (looked up): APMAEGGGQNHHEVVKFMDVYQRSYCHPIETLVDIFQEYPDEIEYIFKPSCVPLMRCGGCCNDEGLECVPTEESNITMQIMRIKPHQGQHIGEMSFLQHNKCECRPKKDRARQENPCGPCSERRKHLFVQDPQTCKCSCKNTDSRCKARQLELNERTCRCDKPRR

T2: PLGF (UniProt P49763-2 19-149, limits assumed)
T2 construct: also called placental growth factor
T2 sequence (looked up): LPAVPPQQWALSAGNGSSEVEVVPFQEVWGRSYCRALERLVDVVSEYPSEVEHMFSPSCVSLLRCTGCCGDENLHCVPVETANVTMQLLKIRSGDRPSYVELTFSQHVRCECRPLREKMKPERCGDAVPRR

T3: VEGF-A (UniProt P15692-4 27-191, limits assumed)
T3 construct: also called vascular endothelial growth factor A
T3 sequence (looked up): T1 sequence (looked up)

T4: PLGF (UniProt P49763-2 19-149, limits assumed)
T4 construct: also called placental growth factor
T4 sequence (looked up): T2 sequence (looked up)

B1: C77 (Fc fusion)
chain: EFGRPFVEMYSEIPEIIHMTEGRELVIPCRVTSPNITVTLKKFPLDTLIPDGKRIIWDSRKGFIISNATYKEIGLLTCEATVNGHLYKTNYLTHRQTNTIIDVQISTPSPVTLCRGHTLVLNCTATTPANTRVQMTWSYPDEKNKNASVRRRIDQSNSHANIFYSVLTIDGMTNSDQGLYTCRVRSGPSFKSVNTSVHIYDCSKVDKKVEPKSSDTPP[gap - human IgG1 Fc]
notes: Based on VEGF-Grab3
B2: C83 (Fc fusion)
chain: B1 chain with A129D
notes: Based on VEGF-Grab3; L258D/K300G/Q302T/K304S/K306Q
B3: C78 (Fc fusion)
chain: EFGRPFVEMYSEIPEIIHMTEGRELVIPCRVTSPNITVTLKKFPLDTLIPDGKRIIWDSRKGFIISNATYKEIGLLTCEATVNGHLYKTNYLTHRQTNTIIDVQISTPSPVTLCRGHTLVLNCTATTPANTRVQMTWSYPDEKNKNASVRRRIDQSNSHANIFYSVLTIDGMTNSDQGLYTCRVRSGPSFKSVNTSVHIYDCSGGGGSAEPKAGDATPPTCPP[gap - human IgG1 Fc]
notes: Based on VEGF-Grab3; L258A/K300G/Q302T/K304S/K306Q
B4: C84 (Fc fusion)
chain: B3 chain with A129D
notes: as for B2
B5: C80 (Fc fusion)
chain: EFGRPFVEMYSEIPEIIHMTEGRELVIPCRVTSPNITVTLKKFPLDTLIPDGKRIIWDSRKGFIISNATYKEIGLLTCEATVNGHLYKTNYLTHRQTNTIIDVQISTPSPVTLCRGHTLVLNCTATTPANTRVQMTWSYPDEKNKNASVRRRIDQSNSHANIFYSVLTIDGMTNSDQGLYTCRVRSGPSFKSVNTSVHIYDCSNTGSGGEEKKKEKEKEEQEERSSDTPP[gap - human IgG1 Fc]
notes: as for B3
B6: C86 (Fc fusion)
chain: B5 chain with A129D
notes: as for B2
B7: C79 (Fc fusion)
chain: EFGRPFVEMYSEIPEIIHMTEGRELVIPCRVTSPNITVTLKKFPLDTLIPDGKRIIWDSRKGFIISNATYKEIGLLTCEATVNGHLYKTNYLTHRQTNTIIDVQISTPSPVTLCRGHTLVLNCTATTPANTRVQMTWSYPDEKNKNASVRRRIDQSNSHANIFYSVLTIDGMTNSDQGLYTCRVRSGPSFKSVNTSVHIYDCSGGGGSGGGGSGGGGSAESKYGPP[gap - human IgG1 Fc]
notes: as for B3
B8: C85 (Fc fusion)
chain: B7 chain with A129D
notes: as for B2
B9: C26 (Fc fusion)
chain: EFGRPFVEMYSEIPEIIHMTEGRELVIPCRVTSPNITVTLKKFPLDTLIPDGKRIIWDSRKGFIISNATYKEIGLLTCEATVNGHLYKTNYLTHRQTNTIIDVQISTPSPVELSVGETLVLNCTATTPANTRVQMTWSYPDEKNKNASVRRRIDQSNSHANIFYSVLTIDGMQNKDKGLYTCRVRSGPSFKSVNTSVHIYDE[gap - human IgG1 Fc]
notes: Based on VEGF-Grab3; K241E/L243S/R244V/H246E/L258A/K300G; IgG1 Fc
B10: C28 (Fc fusion)
chain: B9 chain with E112T, S114L, V115R, E117H, Q173T, K175S
notes: Based on VEGF-Grab3; L258A/K300G/Q302T/K304S; IgG1 Fc
B11: C29 (Fc fusion)
chain: B9 chain with E112T, S114L, V115R, E117H, Q173T, K175S, K177Q
notes: Based on VEGF-Grab3; L258A/K300G/Q302T/K304S/K306Q; IgG1 Fc
B12: C30 (Fc fusion)
chain: B9 chain with A129L, Q173T, K175S
notes: Based on VEGF-Grab3; K241E/L243S/R244V/H246E/K300G/Q302T/K304S; IgG1 Fc

The target of the first test is VEGF-A (UniProt P15692). Briefly: cell-based or functional assay.
Take B1: the IC50 (µg/ml), luciferase reporter, KDR/NFAT-RE HEK293 cells came out at 0.00624 µg/mL.
On the same count and under the same terms, the same measure for B2: 0.0198 µg/mL; for B3: 0.0108 µg/mL.
The same measure, in the same setting: the same measure for B4: 0.00616 µg/mL; for B5: 0.0101 µg/mL.
On the same count and under the same terms, the same measure for B6: 0.0193 µg/mL.
For B7, the IC50 (µg/ml), luciferase reporter, KDR/NFAT-RE HEK293 cells was 0.00881 µg/mL.
Still for that read-out and setting: the same measure for B8: 0.021 µg/mL.

The target in another test is T1, VEGF-A. Briefly: BLI (Octet, AHC sensor); fold increase vs VEGF-Grab3 (Panolos Bioscience). Background: Biolayer interferometry detects binding as a change in optical thickness at a sensor tip.
With B1, the “Fold (KD)” value is greater than 100 fold, the “Fold (kdis)” value was greater than 100 fold and the “Fold (kon)” value was 1.17 fold.
As for B2, the “Fold (KD)” value was 1.48 fold, the “Fold (kdis)” value worked out at 1.07 fold and the “Fold (kon)” value was 1.38 fold.
For B3 the same measures were greater than 100 fold, greater than 100 fold and 1.37 fold.
For B4 the same measures were greater than 100 fold, greater than 100 fold and 1.38 fold.
For B5 the same measures were greater than 100 fold, greater than 100 fold and 1.5 fold.
Turning to B6, the “Fold (KD)” value is greater than 100 fold, the “Fold (kdis)” value is greater than 100 fold and the “Fold (kon)” value stood at 1.08 fold.
Regarding B7, the “Fold (KD)” value is greater than 100 fold, the “Fold (kdis)” value was greater than 100 fold and the “Fold (kon)” value amounted to 1.38 fold.
With B8, the “Fold (KD)” value was greater than 100 fold, the “Fold (kdis)” value was greater than 100 fold and the “Fold (kon)” value was found to be 1.28 fold.

The target in the next test is T2, PLGF. Described as above.
For B1, the “Fold (KD)” value turned out to be 0.87 fold, the “Fold (kdis)” value was determined as 0.54 fold and the “Fold (kon)” value was 1.62 fold.
For B2, in that order: 0.81 fold, 0.59 fold and 1.37 fold.
Turning to B3, the “Fold (KD)” value turned out to be 0.91 fold, the “Fold (kdis)” value stood at 0.55 fold and the “Fold (kon)” value was 1.67 fold.
For B4 the same measures were 0.76 fold, 0.59 fold and 1.29 fold.
For B5 the same measures were 0.87 fold, 0.51 fold and 1.71 fold.
Turning to B6, the “Fold (KD)” value was 1.41 fold, the “Fold (kdis)” value was 2.39 fold and the “Fold (kon)” value worked out at 0.59 fold.
For B7, in that order: 0.82 fold, 0.59 fold and 1.39 fold.
For B8, in that order: 0.84 fold, 0.86 fold and 0.97 fold.

Another test deals with T1, VEGF-A. Briefly: BLI (Octet, AHC sensor); fold increase vs VEGF-Grab3 (Samsung Biologics).
As to B1, the “Fold (KD)” value was determined as 0.65 fold, the “Fold (kdis)” value was found to be 1 fold and the “Fold (kon)” value came to 0.65 fold.
In the case of B2, the “Fold (KD)” value is 0.01 fold, the “Fold (kdis)” value came out at 0.01 fold and the “Fold (kon)” value was 0.77 fold.
As to B3, the “Fold (KD)” value is 0.76 fold, the “Fold (kdis)” value turned out to be 1 fold and the “Fold (kon)” value was found to be 0.76 fold.
B4: the “Fold (KD)” value stood at 0.77 fold, the “Fold (kdis)” value came out at 1 fold and the “Fold (kon)” value was 0.77 fold.
In the case of B5, the “Fold (KD)” value is 0.84 fold, the “Fold (kdis)” value is 1 fold and the “Fold (kon)” value was 0.84 fold.
As to B6, the “Fold (KD)” value was determined as 0.6 fold, the “Fold (kdis)” value came out at 1 fold and the “Fold (kon)” value came out at 0.6 fold.
In the case of B7, the “Fold (KD)” value was 0.77 fold, the “Fold (kdis)” value amounted to 1 fold and the “Fold (kon)” value stood at 0.77 fold.
As to B8, the “Fold (KD)” value is 0.71 fold, the “Fold (kdis)” value came to 1 fold and the “Fold (kon)” value is 0.71 fold.

In the next test the target is T2, PLGF. The test is described as above.
Turning to B1, the “Fold (KD)” value turned out to be 1.19 fold, the “Fold (kdis)” value came out at 0.6 fold and the “Fold (kon)” value came out at 2 fold.
For B2, in that order: 1.11 fold, 0.65 fold and 1.69 fold.
For B3, in that order: 1.25 fold, 0.61 fold and 2.06 fold.
Take B4: the “Fold (KD)” value turned out to be 1.04 fold, the “Fold (kdis)” value was found to be 0.65 fold and the “Fold (kon)” value was 1.6 fold.
For B5 the same measures were 1.2 fold, 0.57 fold and 2.11 fold.
For B6 the same measures were 1.93 fold, 2.65 fold and 0.73 fold.
For B7, in that order: 1.13 fold, 0.66 fold and 1.72 fold.
With B8, the “Fold (KD)” value was determined as 1.15 fold, the “Fold (kdis)” value was 0.95 fold and the “Fold (kon)” value was 1.2 fold.

In another test the target is T3, VEGF-A. In words: BLI Octet; fold increase vs VEGF-Grab3 (Samsung Biologics).
With B9, the “Fold (KD)” value turned out to be 0.03 fold, the “Fold (kdis)” value amounted to 0.02 fold and the “Fold (kon)” value came to 1.36 fold.
For B10, in that order: 0.88 fold, 1 fold and 0.88 fold.
For B11, in that order: 0.85 fold, 1 fold and 0.85 fold.
For B12, in that order: less than 0.01 fold, less than 0.01 fold and 1.67 fold.

The next test deals with T4, PLGF. The description is as above.
Take B9: the “Fold (KD)” value came to 0.53 fold, the “Fold (kdis)” value is 0.39 fold and the “Fold (kon)” value is 1.34 fold.
For B10, in that order: 0.52 fold, 0.51 fold and 1.02 fold.
For B11 the same measures were 0.57 fold, 0.52 fold and 1.09 fold.
For B12 the same measures were 0.51 fold, 0.23 fold and 2.22 fold.
